Experimental data reported in PubChem BioAssay AID1745845 (National Center for Advancing Translational Sciences (NCATS), 2022).
Screen size: about 360,000 compounds; about 2,600 (0.72%) were called active. This list was built around the results that the source calls inconclusive (neither active nor inactive); the mix of calls is not that of the screen. The call rests on the fitted dose curve; in most records, active means well fitted inhibition curve with a large enough effect; inconclusive means small, poorly fitted or top-dose-only effect; inactive means no such curve, though single readings can be large or run the other way. Potencies of inconclusive entries are doubtful fits and often do not repeat.

assay: Primary qHTS for Inhibitors of ATXN expression; conditions: HEK-293 ATXN2-luciferase reporter, luminescence, 24 h; series mostly up to 57 µM; further: nearly all actives have a fitted effect of over 55% in size
Summary of the method: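 qHTS (up to 57 uM final) was run with 24 h compound exposure of reporter cells at 37 °C. Each well was multiplexed: SteadyGlo luminescence measured ATXN2-luciferase expression after a fluorogenic Gly-Phe-AFC viability readout (25 uM final).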
Potency means the concentration at half of the fitted maximal effect; tags describe the fitted curve by direction and shape.

Potency, active:
CC[C@H]1CN2CCc3cc(OC)c(OC)cc3[C@H]2C[C@@H]1C[C@@H]1NCCc2cc(OC)c(OC)cc21 0.273 µM
O=c1c(Cl)c(Cl)cnn1Cc1ccccc1Cl 8.91 µM

Potency, inconclusive:
COc1ccc(C[C@@H](C)[C@@H](C)Cc2ccc(OC)c(OC)c2)cc1OC 17.2 µM [inhibitor, partial curve, poor fit]
Cc1ccc(S(=O)(=O)N2C[C@H]3C(=O)C[C@@H](c4ccccc4)N(S(C)(=O)=O)[C@H]3C[C@H]2c2ccccc2)cc1 25.1 µM [inhibitor, single point]
Cc1ccc(Cn2nc(C)c(NC(=O)C3(C)CC3(Br)Br)c2C)cc1 (configuration not stated) 31.6 µM [inhibitor, partial curve, poor fit]
CC(C)C(C)NC(=O)COc1ccc(Sc2ccc(OCC(=O)NC(C)C(C)C)cc2)cc1 (configuration not stated) 25.1 µM [inhibitor, single point]
Cc1ccccc1CN1C(=O)[C@@H]2Cc3c([nH]c4ccccc34)C(C)(C)N2C1=O 28.2 µM [inhibitor, single point]
Cc1cc(C(=O)N/N=C/c2c(CO)cnc(C)c2O)c2ccccc2n1 28.2 µM [inhibitor, partial curve, poor fit]
O=C(c1ccc(O)c(Br)c1)c1cc(Br)ccc1O 39.8 µM [inhibitor, single point]
O=S(=O)(c1ccccc1C(F)(F)F)N1CCN(c2ncnc3sccc23)CC1 39.8 µM [inhibitor, partial curve, poor fit]
CC(C)[C@H](CO)Nc1nc(Nc2cccc(Cl)c2)c2ncn(C(C)C)c2n1 21.7 µM [inhibitor, partial curve]
CC(O)(c1cccc(F)c1)c1nc(-c2cccc(C(F)(F)F)c2)cs1 (configuration not stated) 35.5 µM [inhibitor, single point]
CC(=O)c1cccc(Nc2nc(-c3cccc(C)c3)nc3ccccc23)c1 14.1 µM [inhibitor, partial curve]
COc1ccccc1-c1cc2nc(C)c(CCC(=O)O)c(C)n2n1 5.01 µM [inhibitor, partial curve]
COc1cc(NC(=O)c2cc3c(s2)-c2ccccc2OC3)cc(OC)c1OC 28.2 µM [inhibitor, single point]

Potency, inactive:
Cc1ccc(C)c(S(=O)(=O)c2nnn3c2nc(Nc2ccc(C)c(C)c2)c2ccccc23)c1
Cc1ccc2nc(-c3ccccc3)cc(C(=O)N3CCN(S(=O)(=O)c4c(C)noc4C)CC3)c2c1
